Reference: PubChem BioAssay AID651820 (National Center for Advancing Translational Sciences (NCATS), 2012)
The whole screen tested about 340,000 compounds, of which about 12,000 (3.5%) were called active. Inconclusive results, whose numbers are uncertain, are shown with a selection of clear calls. Calls follow the shape of the dose curve; as a rule, active = well fitted inhibition curve with a large enough effect; inconclusive = small, poorly fitted or top-dose-only effect, or another doubt; inactive = no such curve, though single readings can be large or run the other way. No potency is given beside an inconclusive call; the fits are too rough.
Potency is read from the fitted curve at half-maximal effect; tags tell the direction and shape of the fitted curve.

Test: qHTS Assay for Inhibitors of Hepatitis C Virus (HCV)
Settings: Huh7.5.1 HCVcc-Cre (HCVcc is cell-culture hepatitis C virus) infection, luciferase reporter, 44 h; series mostly up to 41.8 µM
In short: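 Cells seeded at 1,000/well and cultured 4 h, then compounds added followed by HCVcc-Cre virus (~0.5 moi). After 44 h further culture, luciferase substrate was added, plates held 15 min at room temperature, and luminescence read for 15 sec.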
In the case of `Cc1cnc(C(=O)OC(C)C(=O)Nc2ccc(Cl)cn2)cn1` (stereo unspecified), the Potency is reported as inconclusive [inhibitor, partial curve].
For `C/C=C(/C(=C/C)c1ccc(O)cc1)c1ccc(O)cc1`, the Potency was “inactive”.
For `COC(=O)C1=CNC=C(C(=O)OC)C1c1ccc(Cl)cc1`, the Potency was inconclusive [inhibitor, partial curve].
With `COc1ccc(N/C=C(\[N+](=O)[O-])S(=O)(=O)c2ccccc2)cc1` the Potency was “inactive”.
For `CC(C)c1nc(NCCO)c2nnn(Cc3ccccc3)c2n1`, the Potency was inconclusive [inhibitor, single point].
In the case of `O=[N+]([O-])c1cccc(C2CC(c3ccccc3)=NN2c2ccccc2)c1` (stereo unspecified), the Potency is reported as inconclusive [inhibitor, single point].
In the case of `Cc1cccc2nc(-c3cccc(NC(=O)Cc4ccccc4)c3)cn12`, the Potency is reported as inconclusive [inhibitor, partial curve].
For `O=C(CN1C(=O)CS/C1=C\c1nc(-c2ccc(Cl)cc2)cs1)Nc1cccnc1Cl`, the Potency was inconclusive [inhibitor, full curve].
In the case of `NS(=O)(=O)c1ccc(Nc2nc(-c3ccc(F)cc3)cs2)cc1`, the Potency is reported as inconclusive [inhibitor, single point].
With `COc1cc(-c2nnc(Sc3ccc(C(F)(F)F)cc3[N+](=O)[O-])o2)cc(OC)c1OC` the Potency was inconclusive [inhibitor, single point].
In the case of `CCc1ccc(Nc2n[n+](-c3ccccc3)c(-c3cc(OC)c(OC)cc3Br)s2)cc1`, the Potency is reported as inconclusive [inhibitor, partial curve].
With `Cc1c(C(=O)N2CCC(C)CC2)sc2ncnc(N(C)c3ccccc3)c12` the Potency was inconclusive [inhibitor, partial curve].
With `CSc1ccccc1N=Cc1nc(-c2ccccc2)oc1O` the Potency was “inactive”.
With `Cc1cc(-c2nn(-c3ccccc3F)cc2CN(C)CC(O)CO)c(C)s1` (stereo unspecified) the Potency was inconclusive [inhibitor, single point].
In the case of `Cc1ccc(-n2ncc3c(NCC4CCCO4)ncnc32)c(C)c1` (stereo unspecified), the Potency is reported as inconclusive [inhibitor, single point].
For `COc1ccc(NC(=O)CCC2CCCCC2)cc1S(=O)(=O)N1CCCCC1`, the Potency was inconclusive [inhibitor, partial curve].
In the case of `CCCOc1ccc(CCCN=C(N)N)cc1Cl`, the Potency is reported as active: 8.91 µM.
In the case of `CCn1c(CN2CCN(c3ccc(Cl)cc3)CC2)nc2ccccc21`, the Potency is reported as inconclusive [inhibitor, partial curve].
In the case of `CCCCNC(=O)c1cc2cccc([N+](=O)[O-])c2[nH]1`, the Potency is reported as inconclusive [inhibitor, single point].
For `CCCN(CCC)C(=O)c1cc2c(=O)n3cccc(C)c3nc2s1`, the Potency was “inactive”.
For `COc1ccc(C(C(=O)NC2CCCCC2)N(C(=O)CCl)c2ccc(C)cc2)cc1` (stereo unspecified), the Potency was active: 0.562 µM.
For `COCCn1c(CN(Cc2ccccc2)Cc2ccccc2)nc2c1c(=O)n(C)c(=O)n2C`, the Potency was inconclusive [inhibitor, single point].
For `CC1CCCC(NC(=O)COC(=O)c2ccc3ncsc3c2)C1C` (stereo unspecified), the Potency was “inactive”.
With `C/C(=N\Nc1ccc(S(=O)(=O)N2CCOCC2)cc1[N+](=O)[O-])C(C)C` the Potency was inconclusive [inhibitor, partial curve].
With `Cc1cc(=O)c2cc(Br)ccc2[nH]1` the Potency was “inactive”.
In the case of `Nc1nc(NCc2ccco2)nc(N2CCOCC2)c1[N+](=O)[O-]`, the Potency is reported as “inactive”.
In the case of `COc1cc2cc(CCCOC(=O)c3ccc(C#N)cc3)oc(=O)c2cc1OC`, the Potency is reported as “inactive”.
With `O=C(c1cccc(F)c1)N1CCN(C(=O)c2cc3nc(-c4ccco4)cc(C(F)(F)F)n3n2)CC1` the Potency was inconclusive [inhibitor, partial curve].
In the case of `Cn1nc(C(=O)Nc2cccc(C(=O)NC3CC3)c2)c2ccccc2c1=O`, the Potency is reported as inconclusive [inhibitor, partial curve, poor fit].
For `COc1ccc(/C=N/NC(=O)c2ccn[nH]2)cc1CSc1ccccn1`, the Potency was “inactive”.
For `Cc1ccc(C)c(S(=O)(=O)c2c(N)n(/N=C/c3ccco3)c3nc4ccccc4nc23)c1`, the Potency was inconclusive [inhibitor, partial curve].
For `CCCC1COC(Cn2cncn2)(c2ccc(Cl)cc2Cl)O1` (stereo unspecified), the Potency was “inactive”.
In the case of `O=C(NC1CCCCC1)C(c1ccncc1)N(Cc1ccccc1)C(=O)c1ccc(-c2ccccc2)[nH]1` (stereo unspecified), the Potency is reported as active: 12.6 µM.
In the case of `COc1cccc(C2C3=C(CC(C)(C)CC3=O)Nc3cc(OC)c(OC)cc32)c1` (stereo unspecified), the Potency is reported as inconclusive [inhibitor, partial curve].
In the case of `O=C1CCCC2=C1C(c1ccco1)Nc1ccc3ccccc3c12` (stereo unspecified), the Potency is reported as “inactive”.
For `COc1ccc(OC)c(S(=O)(=O)N2CCCCC2C(=O)O)c1` (stereo unspecified), the Potency was “inactive”.
With `CC(=O)N1CCN(c2ccc(Oc3nnnn3-c3ccccc3)cc2)CC1` the Potency was inconclusive [inhibitor, single point].
For `CCN(CC)CCCOC(=O)C(c1ccccc1)c1ccccc1`, the Potency was active: 0.562 µM.
In the case of `Cc1cccc(N(C(=O)c2snc(C(N)=O)c2N)C(C(=O)NCC2CCCO2)c2cccs2)c1` (stereo unspecified), the Potency is reported as inconclusive [inhibitor, partial curve].
For `Cc1nn(-c2ccccc2)c(N2CCCCC2)c1/C=N/O`, the Potency was inconclusive [inhibitor, full curve, poor fit].
In the case of `Fc1ccc(/C=C2\CCCC3=C2Nc2ncnn2C3c2ccc(F)cc2)cc1` (stereo unspecified), the Potency is reported as inconclusive [inhibitor, single point].
With `CCCCOc1ccc(/C(N)=N/O)cc1` the Potency was inconclusive [inhibitor, partial curve].
With `O=C(OCc1ccc(O)cc1)c1c(-c2ccsc2)oc2ccc(N3CCOCC3)cc12` the Potency was inconclusive [inhibitor, single point].
In the case of `NNC(=O)Cn1nnc(-c2ccc(C(F)(F)F)cc2)n1`, the Potency is reported as “inactive”.
For `O=c1[nH]cnc(O)c1C(c1ccc2c(c1)OCO2)c1c(O)nc[nH]c1=O`, the Potency was inconclusive [inhibitor, single point].
With `CCOC(=O)c1c(C)n(CC(O)CN(C)C)c2cc(Br)c(OC)cc12` (stereo unspecified) the Potency was inconclusive [inhibitor, full curve].
With `COc1ccc(C[C@H]2CN3C(=NC[C@@H]3C(C)C)N2CCNC(=O)CCC2CCCCC2)cc1` the Potency was “inactive”.
With `OC(COCC1COc2ccccc2O1)CN1CCN(c2ccccn2)CC1` (stereo unspecified) the Potency was inconclusive [inhibitor, single point].
In the case of `CS(=O)(=O)N1CCC(C(=O)NCc2ccncc2)CC1`, the Potency is reported as “inactive”.
In the case of `COc1ccccc1NC(=O)c1cc2c(=O)n(C)c3ccccc3c2n1C`, the Potency is reported as inconclusive [inhibitor, single point].
In the case of `CCCc1cc(=O)[nH]c(SCC(=O)N2CCN(c3ccc(F)cc3)CC2)n1`, the Potency is reported as inconclusive [inhibitor, single point].
With `CC1CCC2C(=O)N(c3cc(Cl)ccc3OC(=O)c3ccco3)C(=O)C2C1` (stereo unspecified) the Potency was inconclusive [inhibitor, single point].
With `COc1ccc(CC2(CO)CCN(Cc3cnn(-c4ccccc4)c3)CC2)cc1` the Potency was inconclusive [inhibitor, single point].
For `S=C(c1ccc(-c2cccc(Cl)c2)o1)N1CCCCC1`, the Potency was inconclusive [inhibitor, single point].
In the case of `CCc1nc2ccc(C(=O)N3CCN(c4ccc([N+](=O)[O-])cc4)CC3)cc2nc1CC`, the Potency is reported as active: 12.6 µM.
With `CN1CCN(Cc2nc3ccccc3c(=O)n2Cc2nc(-c3ccc([N+](=O)[O-])cc3)cs2)CC1` the Potency was inconclusive [inhibitor, partial curve].
For `CCOc1ccccc1NC(=O)COc1ccc2c(c1)OCO2`, the Potency was inconclusive [inhibitor, partial curve].
For `CCCn1c(C)cc(/C=C(\C#N)C(=O)OCC(=O)NC(=O)NC(C)(C)C)c1C`, the Potency was inconclusive [inhibitor, partial curve].
With `CCCCn1nc(CC(=O)NCCN(CC)CC)c2ccccc2c1=O` the Potency was “inactive”.
With `CCOc1cc(N2CCCC2)ccc1[N+](=O)[O-]` the Potency was inconclusive [inhibitor, partial curve].
For `Nc1c(Cl)cnn(-c2ccccc2)c1=O`, the Potency was “inactive”.
For `CCn1c2ccccc2c2cc(/C=N/n3c(C)nnc3C)ccc21`, the Potency was active: 3.55 µM.
With `COc1ccc(N=Cc2c(O)ccc3ccccc23)cc1` the Potency was “inactive”.
For `COc1ccc(-c2noc(COc3ccccc3OC)n2)cc1OC`, the Potency was inconclusive [inhibitor, full curve, poor fit].
In the case of `COc1ccc(S(=O)(=O)NNC(=O)C23CC4CC(CC(C4)C2)C3)cc1[N+](=O)[O-]`, the Potency is reported as “inactive”.
With `Cc1ccc(S(=O)(=O)N2CCN(C(=O)CSc3nccn3C)CC2)cc1` the Potency was inconclusive [inhibitor, single point].
For `CC(=O)Nc1ccc(C2=NNC(=NCC3CCCO3)SC2)cc1` (stereo unspecified), the Potency was “inactive”.
In the case of `CCOC(=O)c1c(-c2ccccc2)csc1NC(=O)C(C)NCCCN1CCOCC1` (stereo unspecified), the Potency is reported as active: 10 µM.
For `COC(=O)c1ccc(C)c(NC(=S)NCc2ccc(Cl)cc2)c1`, the Potency was inconclusive [inhibitor, partial curve, poor fit].
In the case of `COc1ccc2cc([C@H](C)C(=O)O)ccc2c1`, the Potency is reported as inconclusive [inhibitor, full curve].
For `Clc1ccc(C2=CC(c3ccco3)n3ncnc3N2)cc1` (stereo unspecified), the Potency was inconclusive [inhibitor, partial curve].
